Inhibition data for 64 compounds are collected here from PubChem BioAssay AID485344 (National Center for Advancing Translational Sciences (NCATS), 2010).

In all, about 340,000 compounds went through this assay and about 6,900 (2%) were called active. Cut-off read from the data, not from the text of the source: active = inhibition above about 30%; inactive = below that, where a call was filed. The entries are a selection whose mix differs from that of the whole data set. The source gives no active or inactive call for entries shown without one.

UniProt P14416, sequence (P14416 whole entry, looked up): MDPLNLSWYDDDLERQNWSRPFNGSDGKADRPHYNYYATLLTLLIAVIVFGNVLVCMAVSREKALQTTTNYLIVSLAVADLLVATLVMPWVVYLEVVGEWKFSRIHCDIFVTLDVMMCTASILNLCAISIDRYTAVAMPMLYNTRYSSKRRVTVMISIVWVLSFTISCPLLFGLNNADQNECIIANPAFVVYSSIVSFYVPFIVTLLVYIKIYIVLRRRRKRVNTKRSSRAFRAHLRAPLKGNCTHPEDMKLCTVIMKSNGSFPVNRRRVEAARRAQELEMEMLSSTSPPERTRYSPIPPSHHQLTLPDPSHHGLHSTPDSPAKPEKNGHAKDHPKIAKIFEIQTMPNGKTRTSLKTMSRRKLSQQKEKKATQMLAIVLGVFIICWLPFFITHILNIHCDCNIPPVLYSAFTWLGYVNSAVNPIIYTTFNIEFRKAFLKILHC

For the assay, the target named is D(2) dopamine receptor (Homo sapiens) (UniProt P14416). The experiment in a line: HTS Assay for Allosteric Antagonists of the Human D2 Dopamine Receptor: Primary Screen for Antagonists. Note: 0% is about no effect. The settings on record: HEK293 TREx D2 cells, calcium flux, dopamine EC80; at 10 µM; stronger effect = higher value. The method in brief:
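Overnight-induced (tetracycline, 30 C) HEK293 T-REx cells carrying force-coupled D2 receive a no-wash calcium dye, then compound, then EC80 dopamine at 180 s; signals are read kinetically throughout.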
On the technique in general: Calcium flux is commonly read through the fluorescence of an indicator in the cells.
Broadly, the inhibition is the drop in the measured response relative to a control, in per cent. `CCS(=O)(=O)N1CCc2cc(C(=O)NCc3ccc(Cl)cc3)ccc21`: the inhibition is 2.28%.
As for `Cc1ccc(NC(=O)/C=C/c2ccc(Cl)cc2)c(Br)c1`, the figure is 4.52%; as for `COc1cc(C2CC(=O)c3c([nH]c(C(=O)OCc4ccc(C)cc4)c3C)C2)cc(OC)c1OC` (centres undefined), 15.9%.
In the case of `Cc1cccc(C)c1NCc1n[nH]c(=S)n1-c1ccccc1` it was active: 51.3%; in that of `CCOC(=O)c1ccccc1NC(=O)Cn1c(=O)n(CCC(=O)N2CCc3ccccc3C2)c(=O)c2ccccc21`, -12.1%; in that of `Cc1cccc(C(c2sc3nc(-c4ccco4)nn3c2O)N2CCN(Cc3ccccc3)CC2)c1` (centres undefined), -5.15%.
In the case of `COc1ccccc1-c1nnc(C2CCN(C(=O)c3cccc(Cl)c3)CC2)o1` it was -15.3%; in that of `CC(C)OCCCNC(=O)Cc1ccc(F)cc1`, active: 57.1%.
In the case of `COc1cccc(CNC(=O)CSc2nc(=O)[nH]c3c2CCC3)c1`, the inhibition was -14%.
As for `CCCN(C(=O)C(=O)Nc1ccc2nc3n(c(=O)c2c1)CCCCC3)c1ccc(OCC)cc1`, the figure is 9.47%; as for `O=C(CN1CCc2ccccc21)NC(=O)NC1CCCCC1`, active: 32.6%.
Take `O=C(c1ccccc1)C1CN(Cc2ccccc2)CCC1(O)c1ccccc1` (centres undefined): the inhibition was active: 45.3%.
As for `CCOc1ccccc1C(=O)Nc1cccc2ccc(C)nc12`, the figure is 7.11%; as for `Cc1cccc2nc(-c3ccc(N(C)C)cc3)c(Nc3ccc4c(c3)OCO4)n12`, -14.7%.
In the case of `COc1ccc(CCNc2nc3ccc(Cl)cc3n3cnnc23)cc1OC` it was 0.166%; in that of `O=C(NCCc1csc(-c2ccc(Cl)cc2)n1)c1ccco1`, 3.03%.
As for `O=C(CCc1ccccc1)N(Cc1cccnc1)c1nc2c(F)cc(F)cc2s1`, the figure is -8.02%.
Regarding `Cc1ccc(C)c(NC(=O)N(C)CCc2c(C)nn(C)c2C)c1`, the inhibition was determined as 6.75%.
As for `CC(C)c1ccc(-c2noc(SCC(=O)N3CCN(c4ccc(F)cc4)CC3)n2)cc1`, the figure is 5.31%; as for `COc1ccc(CCNS(=O)(=O)c2cc(-c3cc(C)no3)ccc2OC)cc1OC`, -18.4%; as for `Cc1ccc(N2CC(C(=O)NCCS(=O)(=O)N3CCN(c4ccccc4)CC3)CC2=O)cc1C` (centres undefined), 2.26%.
As for `Cc1ccc(C)c(Nc2nn3c(=O)c4ccc(C(=O)NCCC5=CCCCC5)cc4nc3s2)c1`, the figure is 0.471%; as for `COc1ccc([N+](=O)[O-])cc1NC(=O)C(C)N1CCCC1` (centres undefined), active: 30.7%.
As for `CCNc1nc(N)nc(Oc2ccc(OCC(=O)OC)nn2)n1`, the figure is 25%.
`CCOc1ccc(-c2nc(CNC(=O)NC3CCCCC3)c(C)o2)cc1`: the inhibition was -14.6%.
In the case of `COc1ccc(-n2nnnc2-c2cccc(OC)c2)cc1` it was active: 35.6%.
In the case of `Cc1ccc(C(=O)Nc2nc3nc(C)cc(=O)n3[nH]2)cc1` it was -5.27%; in that of `COc1ccccc1NC(=O)CN1C(=O)CCSc2ccccc21`, -3.94%.
As for `COc1cc2ccccc2cc1C(=O)NCC(c1cccs1)N(C)C` (centres undefined), the inhibition is active: 55.5%.
For `Cc1ccc(Cl)cc1NC(=O)CSCc1cnn(-c2ccccc2)c1-n1cccc1`, the inhibition came out at 2.5%.
In the case of `Cc1cccc(NS(=O)(=O)c2ccc3c(c2)CCN3C(=O)C2CC2)c1C` it was 10.9%; in that of `CCN(C(=O)c1cn(C)c(=O)c2ccccc12)c1cccc(C)c1`, -7.5%; in that of `CN1CCN(C(=O)c2ccc3c(c2)N(Cc2ccc(Cl)cc2)C(=O)c2ccccc2S3(=O)=O)CC1`, -20%.
As for `CCC(C)NC(=O)CSCc1nc(-c2ccc(C)cc2)oc1C` (centres undefined), the figure is -12.2%; as for `O=C(c1ccccc1Br)N(Cc1ccccc1F)C1CCS(=O)(=O)C1` (centres undefined), 11.1%.
As for `CCOc1ccc(CCNC(=O)c2ccc(-c3nc(CSc4ccccc4)c(C)o3)cc2)cc1`, the figure is 9.88%; as for `COc1ccc(OCC(=O)N(Cc2ccc(C)o2)C2CCS(=O)(=O)C2)cc1` (centres undefined), 17.2%.
As for `Cc1csc(SC(C)C(=O)Nc2ccc(Cl)cn2)n1` (centres undefined), the inhibition is active: 43.2%.
In the case of `CCc1ccc(N(CC)C(=O)c2sc3nc4n(c(=O)c3c2C)CCCC4)cc1` it was 26.2%; in that of `Cc1c(CC(=O)N2CCN(C(=O)C3COc4ccccc4O3)CC2)c(=O)oc2c(O)c(O)ccc12` (centres undefined), active: 60%; in that of `CCN1C(=O)c2ccccc2Sc2ccc(NC(=O)c3cccc(C)c3)cc21`, -16.7%.
On to `Cc1ccc(NC(=O)Nc2cccs2)c(C)c1`, for which the inhibition was -12.2%.
As for `CN(CCCNC(=O)c1cc2c(=O)n(C)c3ccccc3c2s1)Cc1ccccc1`, the figure is -19%; as for `CCOC(=O)c1cc(OC(=O)c2ccccc2OC)n(-c2ccccc2)n1`, -4.73%.
In the case of `O=C1c2oc3ccccc3c(=O)c2C(c2cccnc2)N1CCCN1CCOCC1` (centres undefined) it was active: 34.6%; in that of `COc1ccc(CCNC(=O)c2ccc3c(c2)N(Cc2cccc(Cl)c2)C(=O)c2ccccc2S3=O)cc1OC` (centres undefined), -14.9%.
In the case of `CCOC(=O)C1CCN(CC(O)COc2ccc(C(C)(C)CC)cc2)CC1` (centres undefined) it was active: 80.2%.
Take `COC(=O)c1c(NC(=O)/C=C/c2ccc(OC)cc2)sc2c1CCC2`: the inhibition was determined as 5.96%.
In the case of `COc1ccc(CNC(=O)CSc2ncc3c(n2)-c2cc(Cl)ccc2N(C)S3(=O)=O)cc1` it was 5.78%; in that of `CCOC(=O)Cn1c(-c2cccs2)cc2cc(Cl)ccc21`, -0.0586%; in that of `CC(C)c1cnc2c(c1SCC(=O)Nc1ccc(C(N)=O)cc1)c(=O)n(C)c(=O)n2C`, 15.5%.
In the case of `CCc1ccc(NC(=O)CC2C(=O)N(c3ccc(OC)cc3)C(=O)N2Cc2cccs2)cc1` (centres undefined) it was 4.51%; in that of `COc1cc(OC)c(N(C)C(=O)CSc2c3c(nc4ccc(Cl)cc24)CCCC3)cc1Cl`, -12.5%.
As for `O=C(Nc1cccc(Cl)c1Cl)c1cc(S(=O)(=O)N2CCCc3ccccc32)ccc1F`, the figure is 22.4%; as for `CCC(=O)N1CCCc2cc(S(=O)(=O)N3CCC(C(=O)Nc4cccc(Cl)c4)CC3)ccc21`, -6.91%.
On to `Cc1ccc(C(=O)Nc2ccc3oc(-c4cc(Br)ccc4Cl)nc3c2)cc1`, for which the inhibition turned out to be 1.53%.
As for `CCCCCCC(O)(c1ccc(OC)cc1)C(CN1CCOCC1)c1ccccc1` (centres undefined), the figure is active: 30.7%; as for `O=c1cc2nc(-c3ccccc3)nc(SCCOc3ccc(Cl)cc3)n2[nH]1`, 23.1%; as for `Cc1nn2c(-c3ccco3)ccnc2c1-c1ccc(Cl)cc1`, 4.81%.
As to `CCOC(=O)c1cnc2c(C)cc(C)cc2c1Nc1ccccc1OCC`, the inhibition is -14.9%.
In the case of `COc1ccc(C(=O)Nc2ccc3oc(-c4cc(Cl)ccc4Cl)nc3c2)cc1Br` it was 5.26%; in that of `Cc1ccc(C)c(Cn2c(=O)n(-c3ccc(F)cc3)c(=O)c3sc4ccccc4c32)c1`, 9.97%.
Turning to `Clc1cccc(-n2ncc3c(Nc4ccc5c(c4)OCCO5)ncnc32)c1`, the inhibition was 6.48%.
As for `COc1ccc(N2CCN(C(=O)Cn3c(-c4cccs4)cc4ccccc43)CC2)cc1`, the figure is -9.93%.
